The list shows a part of the results. The full chains were built here from the parent and the listed change. Values near 0.05 are background.

Data on 9 variants can be found in the supplement of paper PMC12217912.

The chains are these.
B1: TEV protease; numbered along this chain (parent)
chain: MGESLFKGPRDYNPISSSICHLTNESDGHTTSLYGIGFGPFIITNKHLFRRNNGTLVVQSLHGVFKVKDTTTLQQHLVDGRDMIIIRMPKDFPPFPQKLKFREPQREERICLVTTNFQTKSMSSMVSDTSCTFPSGDGIFWKHWIQTKDGQCGSPLVSTRDGFIVGIHSASNFTNTNNYFTSVPKNFMELLTNQEAQQWVSGWRLNADSVLWGGHKVFMVKPEEPFQPVKEATQL
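Note: Bxb1 expression induced with 0.2% (w/v) L-rhamnose at OD600 near 0.5, cultures sampled hourly, flipped fraction per protease–substrate barcode pair counted by paired-end Illumina sequencing.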

In this experiment the parent is B1. The experiment can be described thus: raw area under fraction-flipped curve 0-4 h after induction (AUC4h, not background-subtracted), DNA-recorder readout of cleavage of the substrate (dimensionless); higher = more cleavage of the substrate by the protease variant. Conditions: temperature: 34 °C; time window: 0-4 h after rhamnose induction. How it is done:
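In vivo DNA recorder in E. coli TOP10(DE3) ΔrhaA at 34 °C. Each TEVp single-site mutant (parent TEVp 0) is paired with a single-site variant of the 7-mer TEVs (canonical ENLYFQ|S). The substrate sits between flexible linkers in a Bxb1-sfGFP-TEVs-SsrA fusion, so cleavage stabilises Bxb1 and speeds flipping of a recombination array, read by NGS. The value is the raw area under the fraction-flipped curve over 0-4 h after rhamnose induction (AUC4h), with ≥20 reads per time point. It is not background-subtracted; inactive controls average about 0.047.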
As for MGESLFKGPRDYNPISSSICHLTNESDGHTTSLYGIGFGPFIITNKHLFRRNNGTLVVQSLHGVFKVKDTTTLQQHLVDGRDMIIIRMPKDFPPFPQKLKFREPQREERICLVTTNFQTKSMSSMVSDTSCTFPSGDGISWKHWIQTKDGQCGSPLVSTRDGFIVGIHSASNFTNTNNYFTSVPKNFMELLTNQEAQQWVSGWRLNADSVLWGGHKVFMVKPEEPFQPVKEATQL [F140S], the “area with substrate ENLYAQS” value came out at 0.0681, the “area with substrate ENLYCQS” value turned out to be 0.0682, the “area with substrate ENLYEQS” value came to 0.06 and the “area with substrate ENLYHQS” value turned out to be 0.0785. The “area with substrate ENLYIQS” value was found to be 0.0436, the “area with substrate ENLYKQS” value was found to be 0.0628 and the “area with substrate ENLYRQS” value came out at 0.06.

MGESLFKGPRDYNPISSSICHLTNESDGHTTSLYGIGFGPFIITNKHLFRRNNGTLVVQSLHGVFKVKDTTTLQQHLVDGRDMIIIRMPKDFPPFPQKLKFREPQREERICLVTTNFQTKSMSSMVSDTSCTFPSGDGIFWKHWIQTKDGQCGSPLVVTRDGFIVGIHSASNFTNTNNYFTSVPKNFMELLTNQEAQQWVSGWRLNADSVLWGGHKVFMVKPEEPFQPVKEATQL [S158V]: the “area with substrate ENLYAQS” value was found to be 0.0559, the “area with substrate ENLYCQS” value came to 0.0566, the “area with substrate ENLYEQS” value was 0.0532 and the “area with substrate ENLYHQS” value came to 0.046. The “area with substrate ENLYIQS” value came out at 0.0629, the “area with substrate ENLYKQS” value stood at 0.0199, the “area with substrate ENLYNQS” value worked out at 0.0479 and the “area with substrate ENLYPQS” value was 0.0549. Besides, the “area with substrate ENLYSQS” value was 0.0513, the “area with substrate ENLYTQS” value turned out to be 0.09 and the “area with substrate ENLYVQS” value was 0.0669.

For MGESLFKGPRDYNPISSSICHLTNESDGHTTSLYGIGFGPFIITNKHLFRRNNGTLVVQSLHGVFKVKDTTTLQQHLVDGRDMIIIRMPKDFPPFPQKLKFREPQREERICLVTTNFQTKSMSSMVSDTSCTFPSGDGIFWKHWIQTKDGQCGSPLVSTRDGMIVGIHSASNFTNTNNYFTSVPKNFMELLTNQEAQQWVSGWRLNADSVLWGGHKVFMVKPEEPFQPVKEATQL [F163M], the “area with substrate ENLYAQS” value came out at 0.0678, the “area with substrate ENLYHQS” value came to 0.0606, the “area with substrate ENLYKQS” value came out at 0.104 and the “area with substrate ENLYNQS” value amounted to 0.0681. The “area with substrate ENLYQQS” value stood at 0.0551, the “area with substrate ENLYRQS” value turned out to be 0.0571, the “area with substrate ENLYTQS” value came out at 0.0921 and the “area with substrate ENLYWQS” value was found to be 0.0878.

Turning to MGESLFKGPRDYNPISSSICHLTNESDGHTTSLYGIGFGPFIITNKHLFRRNNGTLVVQSLHGVFKVKDTTTLQQHLVDGRDMIIIRMPKDFPPFPQKLKFREPQREERICLVTTNFQTKSMSSMVSDTSCTFPSGDGIFWKHWGQTKDGQCGSPLVSTRDGFIVGIHSASNFTNTNNYFTSVPKNFMELLTNQEAQQWVSGWRLNADSVLWGGHKVFMVKPEEPFQPVKEATQL [I145G], the “area with substrate ENLYAQS” value is 0.0626, the “area with substrate ENLYMQS” value was determined as 0.118, the “area with substrate ENLYNQS” value came out at 0.059 and the “area with substrate ENLYPQS” value came to 0.072. Moreover, the “area with substrate ENLYRQS” value was 0.0845, the “area with substrate ENLYTQS” value was 0.0731, the “area with substrate ENLYVQS” value turned out to be 0.107 and the “area with substrate ENLYYQS” value is 0.0648.

For MGESLFKGPRDYNPISSSICHLTNESDGHTTSLYGIGFGPFIITNKHLFRRNNGTLVVQSLHGVFKVKDTTTLQQHLVDGRDMIIIRMPKDFPPFPQKLKFREPQREERICLVTTNFQTKSMSSMVSDTSCTFPSGDGIFFKHWIQTKDGQCGSPLVSTRDGFIVGIHSASNFTNTNNYFTSVPKNFMELLTNQEAQQWVSGWRLNADSVLWGGHKVFMVKPEEPFQPVKEATQL [W141F], the “area with substrate ENLYAQS” value was determined as 0.077, the “area with substrate ENLYCQS” value turned out to be 0.0669, the “area with substrate ENLYDQS” value is 0.0616 and the “area with substrate ENLYEQS” value is 0.0602. In addition, the “area with substrate ENLYGQS” value came to 0.0758, the “area with substrate ENLYHQS” value was found to be 0.0536, the “area with substrate ENLYIQS” value came out at 0.0983 and the “area with substrate ENLYKQS” value is 0.0628. Besides, the “area with substrate ENLYMQS” value came to 0.0717, the “area with substrate ENLYNQS” value amounted to 0.0664, the “area with substrate ENLYPQS” value turned out to be 0.0685 and the “area with substrate ENLYRQS” value worked out at 0.0532. For the same variant, the “area with substrate ENLYSQS” value is 0.0591, the “area with substrate ENLYTQS” value was 0.0848, the “area with substrate ENLYVQS” value turned out to be 0.115 and the “area with substrate ENLYYQS” value amounted to 0.0485.

MGESLFKGPRDYNPISSSICHLTNESDGHTTSLYGIGFGPFIITNKHLFRRNNGTLVVQSLHGVFKVKDTTTLQQHLVDGRDMIIIRMPKDFPPFPQKLKFREPQREERICLVTTNFQTKSMSSMVSDTSCTFPSGSGIFWKHWIQTKDGQCGSPLVSTRDGFIVGIHSASNFTNTNNYFTSVPKNFMELLTNQEAQQWVSGWRLNADSVLWGGHKVFMVKPEEPFQPVKEATQL [D137S]: the “area with substrate ENLYAQS” value was 0.0633, the “area with substrate ENLYKQS” value was 0.0153, the “area with substrate ENLYLQS” value was determined as 0.0855 and the “area with substrate ENLYNQS” value was 0.0572. The “area with substrate ENLYQQS” value was found to be 0.0762, the “area with substrate ENLYTQS” value is 0.13 and the “area with substrate ENLYWQS” value came to 0.0584.

In the case of MGESLFKGPRDYNPISSSICHLTNESDGHTTSLYGIGFGPFIITNKHLFRRNNGTLVVQSLHGVFKVKDTTTLQQHLVDGRDMIIIRMPKDFPPFPQKLKFREPQREERICLVTTNFQTKSMSSMVSDTSCTFPSGHGIFWKHWIQTKDGQCGSPLVSTRDGFIVGIHSASNFTNTNNYFTSVPKNFMELLTNQEAQQWVSGWRLNADSVLWGGHKVFMVKPEEPFQPVKEATQL [D137H], the “area with substrate ENLYAQS” value was 0.0614, the “area with substrate ENLYDQS” value worked out at 0.0881, the “area with substrate ENLYEQS” value is 0.0743 and the “area with substrate ENLYGQS” value turned out to be 0.0604. The “area with substrate ENLYHQS” value worked out at 0.0641, the “area with substrate ENLYIQS” value turned out to be 0.135, the “area with substrate ENLYLQS” value turned out to be 0.0831 and the “area with substrate ENLYMQS” value was found to be 0.0946. The “area with substrate ENLYNQS” value was found to be 0.0664 and the “area with substrate ENLYTQS” value is 0.234.

As to MGESLFKGPRDYNPISSSICHLTNESDGHTTSLYGIGFGPFIITNKHLFRRNNGTLVVQSLHGVFKVKDTTTLQQHLVDGRDMIIIRMPKDFPPFPQKLKFREPQREERICLVTTNFQTKSMSSMVSDTSCTFPSGQGIFWKHWIQTKDGQCGSPLVSTRDGFIVGIHSASNFTNTNNYFTSVPKNFMELLTNQEAQQWVSGWRLNADSVLWGGHKVFMVKPEEPFQPVKEATQL [D137Q], the “area with substrate ENLYAQS” value came to 0.0542, the “area with substrate ENLYDQS” value came to 0.0639, the “area with substrate ENLYEQS” value was 0.0937 and the “area with substrate ENLYGQS” value was determined as 0.0881. Besides, the “area with substrate ENLYIQS” value amounted to 0.114, the “area with substrate ENLYKQS” value is 0.067, the “area with substrate ENLYNQS” value turned out to be 0.0617 and the “area with substrate ENLYPQS” value turned out to be 0.0713. Also, the “area with substrate ENLYSQS” value is 0.0735, the “area with substrate ENLYTQS” value stood at 0.0647 and the “area with substrate ENLYVQS” value was determined as 0.103.

For the variant MGESLFKGPRDYNPISSSICHLTNESDGHTTSLYGIGFGPFIITNKHLFRRNNGTLVVQSLHGVFKVKDTTTLQQHLVDGRDMIIIRMPKDFPPFPQKLKFREPQREERICLVTTNFQTKSMSSMVSDKSCTFPSGDGIFWKHWIQTKDGQCGSPLVSTRDGFIVGIHSASNFTNTNNYFTSVPKNFMELLTNQEAQQWVSGWRLNADSVLWGGHKVFMVKPEEPFQPVKEATQL [T129K], the “area with substrate ENLYAQS” value was found to be 0.0666, the “area with substrate ENLYEQS” value turned out to be 0.067, the “area with substrate ENLYGQS” value stood at 0.0815 and the “area with substrate ENLYHQS” value is 0.064. Besides, the “area with substrate ENLYIQS” value was 0.121, the “area with substrate ENLYKQS” value came to 0.0637, the “area with substrate ENLYLQS” value is 0.0655 and the “area with substrate ENLYNQS” value was determined as 0.0773. Besides, the “area with substrate ENLYVQS” value came out at 0.0961, the “area with substrate ENLYWQS” value is 0.0674 and the “area with substrate ENLYYQS” value was found to be 0.069.
